Results published in publication PMC8065113.
Like-named read-outs stand apart in the source and are kept apart here. These are yes or no findings as the source states them, for the method shown. In cells and extracts the contact can be indirect. Some entries that bind do so weakly or less than the wild type. One block for each molecule: values may come before it.

The chains behind the UniProt entries cited, without tags or fusion partners. Where a name states a change or a piece, a line headed by the entry shows the natural chain unless it says otherwise. Residues count along the entry.
UniProt Q99962, residues 295-352: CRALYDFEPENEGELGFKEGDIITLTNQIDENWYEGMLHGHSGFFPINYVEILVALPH
UniProt Q99963, residues 291-347: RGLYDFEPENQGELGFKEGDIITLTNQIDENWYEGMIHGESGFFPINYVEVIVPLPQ
UniProt Q99961, residues 311-368: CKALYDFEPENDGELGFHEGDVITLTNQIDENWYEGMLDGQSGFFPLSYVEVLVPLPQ
UniProt Q62188: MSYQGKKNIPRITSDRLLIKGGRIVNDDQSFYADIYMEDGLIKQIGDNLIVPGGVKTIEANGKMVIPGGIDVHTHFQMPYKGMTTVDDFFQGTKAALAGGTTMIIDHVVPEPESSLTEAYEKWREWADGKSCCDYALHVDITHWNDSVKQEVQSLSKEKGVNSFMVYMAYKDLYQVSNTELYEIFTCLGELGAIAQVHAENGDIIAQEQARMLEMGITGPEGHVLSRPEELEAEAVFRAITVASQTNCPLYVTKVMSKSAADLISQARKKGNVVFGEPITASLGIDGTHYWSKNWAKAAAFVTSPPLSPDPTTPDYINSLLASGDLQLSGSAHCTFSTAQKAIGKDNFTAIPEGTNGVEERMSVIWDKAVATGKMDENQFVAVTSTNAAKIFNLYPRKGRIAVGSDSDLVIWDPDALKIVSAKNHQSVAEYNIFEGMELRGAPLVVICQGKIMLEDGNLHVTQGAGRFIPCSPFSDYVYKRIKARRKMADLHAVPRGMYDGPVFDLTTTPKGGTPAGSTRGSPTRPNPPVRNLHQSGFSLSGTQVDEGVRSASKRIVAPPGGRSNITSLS
UniProt P49840: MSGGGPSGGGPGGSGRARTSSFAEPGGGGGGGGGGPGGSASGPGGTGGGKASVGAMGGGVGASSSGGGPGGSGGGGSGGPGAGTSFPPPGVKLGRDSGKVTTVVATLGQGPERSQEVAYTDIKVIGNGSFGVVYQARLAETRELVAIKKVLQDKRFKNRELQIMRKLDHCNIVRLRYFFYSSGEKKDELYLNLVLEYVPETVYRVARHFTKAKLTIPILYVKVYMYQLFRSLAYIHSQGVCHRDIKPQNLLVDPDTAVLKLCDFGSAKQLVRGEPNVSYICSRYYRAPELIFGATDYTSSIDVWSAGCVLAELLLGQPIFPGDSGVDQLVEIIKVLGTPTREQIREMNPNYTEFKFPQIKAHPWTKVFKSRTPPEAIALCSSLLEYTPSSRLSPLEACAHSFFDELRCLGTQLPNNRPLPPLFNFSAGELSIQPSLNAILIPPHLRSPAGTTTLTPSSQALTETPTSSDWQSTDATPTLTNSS

Key:
[1] = target: GST-SH3 domain of Endophilin A1 (human) (UniProt Q99962); assay: pull-down; GST-SH3 domains of Endophilin A1, A2 or A3 on glutathione beads incubated overnight at 4 °C with extracts of cells expressing EGFP-tagged CRMP proteins; immunoblot with anti-EGFP; only the target purified
[2] = target: GST-SH3 domain of Endophilin A3 (human) (UniProt Q99963); assay: as above
[3] = target: GST-SH3 domain of Endophilin A2 (human) (UniProt Q99961); assay: pull-down; GST-SH3 domains on glutathione beads incubated overnight at 4 °C with non-transfected cell lysates (20 mM HEPES, 1 mM EDTA, 0.2% Triton X-100); endogenous proteins detected by immunoblot; resting cells, cells treated with 5 μM Dinaciclib and CHIR-99021 for 10 min (Fig. 4c) or with extra 10% FBS for 10 min (Fig. 7d); only the target purified
[4] = target: GST-SH3 domain of Endophilin A2 (human) (UniProt Q99961); assay: as above; remark: listed apart in the source

binding [1]: binds
binding [2]: binds
Molecule: CRMP4-EGFP wild-type (from UniProt Q62188 1-570)

binding [4]: binds
B1: Dynamin-1 (endogenous) (protein, UniProt Q05193 1-864)
chain: MGNRGMEDLIPLVNRLQDAFSAIGQNADLDLPQIAVVGGQSAGKSSVLENFVGRDFLPRGSGIVTRRPLVLQLVNATTEYAEFLHCKGKKFTDFEEVRLEIEAETDRVTGTNKGISPVPINLRVYSPHVLNLTLVDLPGMTKVPVGDQPPDIEFQIRDMLMQFVTKENCLILAVSPANSDLANSDALKVAKEVDPQGQRTIGVITKLDLMDEGTDARDVLENKLLPLRRGYIGVVNRSQKDIDGKKDITAALAAERKFFLSHPSYRHLADRMGTPYLQKVLNQQLTNHIRDTLPGLRNKLQSQLLSIEKEVEEYKNFRPDDPARKTKALLQMVQQFAVDFEKRIEGSGDQIDTYELSGGARINRIFHERFPFELVKMEFDEKELRREISYAIKNIHGIRTGLFTPDMAFETIVKKQVKKIREPCLKCVDMVISELISTVRQCTKKLQQYPRLREEMERIVTTHIREREGRTKEQVMLLIDIELAYMNTNHEDFIGFANAQQRSNQMNKKKTSGNQDEILVIRKGWLTINNIGIMKGGSKEYWFVLTAENLSWYKDDEEKEKKYMLSVDNLKLRDVEKGFMSSKHIFALFNTEQRNVYKDYRQLELACETQEEVDSWKASFLRAGVYPERVGDKEKASETEENGSDSFMHSMDPQLERQVETIRNLVDSYMAIVNKTVRDLMPKTIMHLMINNTKEFIFSELLANLYSCGDQNTLMEESAEQAQRRDEMLRMYHALKEALSIIGDINTTTVSTPMPPPVDDSWLQVQSVPAGRRSPTSSPTPQRRAPAVPPARPGSRGPAPGPPPAGSALGGAPPVPSRPGASPDPFGPPPQVPSRPNRAPPGVPSRSGQASPSRPESPRPPFDL

Further lines, the molecule ahead of its results:

Molecule: CRMP4-EGFP P526A (from UniProt Q62188 1-570)
binding [1]: no binding
binding [2]: no binding

Molecule: GSK3α (endogenous) (from UniProt P49840 1-483) (enzyme)
binding [3]: no binding

Molecule: CRMP4-EGFP R525E (from UniProt Q62188 1-570)
binding [1]: no binding
binding [2]: no binding

Molecule: CRMP4-EGFP P502A (from UniProt Q62188 1-570)
binding [1]: binds
binding [2]: binds
